Among the data in PubChem BioAssay AID488969 (Vanderbilt High Throughput Screening Facility, 2010) are z-score values, retold here.

The full ranking holds about 110,000 compounds; the median of “z-score” is about -0.1, and the highest 2% start at about 2. This is one part of the list. Active and inactive are the calls of the source.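 Rule for the calls: active = z-score in the third read window above 3 or below -3; inactive = the rest.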

This assay has as its target Metabotropic glutamate receptor 8 (Rattus norvegicus) (UniProt P70579). As to the kind of experiment: mGluR8 Gi/Go-coupled signaling modulation – cell-based, rat, thallium flux, HTS, primary screen (AID 488969). The conditions noted are these: HEK293 rat mGluR8, GIRK (G protein-gated inwardly rectifying potassium channel) thallium flux, FluoZin2; at 10 µM; stronger effect = higher value; submaximal glutamate (EC20) added with thallium.
UniProt P70579, sequence (P70579 whole entry, looked up): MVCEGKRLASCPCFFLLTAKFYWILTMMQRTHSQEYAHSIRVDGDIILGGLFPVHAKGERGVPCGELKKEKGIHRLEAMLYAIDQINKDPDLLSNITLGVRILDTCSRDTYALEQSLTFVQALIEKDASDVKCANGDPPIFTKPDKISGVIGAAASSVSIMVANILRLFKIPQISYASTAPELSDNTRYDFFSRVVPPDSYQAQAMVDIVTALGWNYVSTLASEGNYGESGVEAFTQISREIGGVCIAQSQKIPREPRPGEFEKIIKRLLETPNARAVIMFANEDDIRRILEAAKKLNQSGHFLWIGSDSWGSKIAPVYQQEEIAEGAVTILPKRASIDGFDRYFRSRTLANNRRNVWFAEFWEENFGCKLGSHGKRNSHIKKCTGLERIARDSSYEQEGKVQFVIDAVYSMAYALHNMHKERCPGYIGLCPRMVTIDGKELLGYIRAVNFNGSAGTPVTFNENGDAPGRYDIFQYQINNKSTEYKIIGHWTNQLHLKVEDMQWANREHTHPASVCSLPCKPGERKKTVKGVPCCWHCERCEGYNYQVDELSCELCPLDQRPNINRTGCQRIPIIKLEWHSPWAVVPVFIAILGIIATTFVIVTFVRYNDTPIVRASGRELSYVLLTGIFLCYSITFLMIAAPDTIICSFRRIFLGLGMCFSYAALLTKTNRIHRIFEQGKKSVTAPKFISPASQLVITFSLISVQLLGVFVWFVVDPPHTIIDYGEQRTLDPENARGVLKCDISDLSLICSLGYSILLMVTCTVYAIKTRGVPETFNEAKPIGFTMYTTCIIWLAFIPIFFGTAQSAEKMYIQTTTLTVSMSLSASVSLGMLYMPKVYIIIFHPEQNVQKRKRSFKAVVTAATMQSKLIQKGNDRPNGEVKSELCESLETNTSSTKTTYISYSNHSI
Compound `Cc1ccc(-c2cc(C(=O)Nc3c(C#N)cnn3C)no2)cc1` showed a z-score of 0.0682.

In turn, `COc1ccc(C(=O)NCCc2nnc(SCC(=O)Nc3ccc(Br)cc3)n2C)cc1` registered a z-score of -0.448. With `CC(C)c1c(O)nc(SCCC(=O)O)[nH]c1=O` the figure was -0.201; with `Cc1ccccc1-n1nnc2c(=O)oc3ccccc3c21`, active: -4.68. In turn, `Cc1ccc(S(=O)(=O)Nc2c3ccccc3nc(=O)n2-c2ccccc2)cc1` gave a z-score of 0.00219. In turn, `CC1CC(C)CN(C(=O)CSc2nc(Cc3cccs3)nc3ccccc23)C1` (centres undefined) had a z-score of 0.118. Next, `CC(C)CCNC(=O)c1ccc2c(c1)ncn2C1CCCCC1`: -0.265; `COc1ccccc1CNC(=O)c1ccc(-c2ccccc2)cc1`: -0.243; `CC(C)(C)c1ccc(C(=O)N2CCC(C(=O)NCCC3=CCCCC3)CC2)cc1`: -0.146.

For the compound `O=C(c1ccc(Br)o1)N1CCN(c2ccccc2F)CC1`, the z-score is -0.193.

Compound `CN1CCN(c2nc3c(c(=O)[nH]c(=O)n3C)n2CCOc2ccccc2)CC1` came in with a z-score of -0.134. Next, `CCN1C(=O)c2cccc3c(S(=O)(=O)NCc4ccccn4)ccc1c23`: -0.155; `CCOC(=O)c1c(C)[nH]c(C)c1C(=O)CN1C(=O)NC2(CCC(C)CC2)C1=O` (centres undefined): -0.119; `COc1ccccc1NC(=O)CN(Cc1ccco1)C(=O)c1ccc(-n2nc(C)cc2C)cc1`: -0.694. Next, `CN(CC(=O)Nc1cccnc1)S(=O)(=O)c1cc(Cl)ccc1Cl`: -0.161. In turn, `COc1ccccc1-c1nc2n(n1)C(c1cccs1)C(C(=O)Nc1cccnc1)=C(C)N2` (centres undefined) yielded a z-score of -0.0169. The compound `CCn1c(-c2ccc3ncccc3c2)n[nH]c1=S` displayed a z-score of 0.0192. Next, `Cc1nnc(SCC(=O)Nc2cc(C(C)(C)C)nn2-c2ccccc2)s1`: -0.346; `CCOc1ccc(N(CC(=O)NC2CCCC2)C(=O)CCCC(=O)Nc2ccccn2)cc1`: -0.391.

As to `CC1=C(C)CC(C(=O)Nc2ccc(C(N)=O)cc2)C(C(=O)O)C1` (centres undefined), the z-score is -0.183. With `CC1(C)CC2CC(C)(CN2C(=O)CN2C(=O)c3ccccc3C2=O)C1` (centres undefined) the figure was 0.018.

The compound `Cc1ccc(-n2c(=O)cc(N3CCC(C)CC3)[nH]c2=O)cc1` returned a z-score of 1.28. With `NC(=O)C1(NC(=O)[C@@H]2CC3(CC(c4cccc(NC(=O)[C@@H]5CCC(=O)N5)c4)=NO3)CN2C(=O)Cc2ccc(C(F)(F)F)cc2)CC1` (some centres undefined) the figure was -0.279. Consider `Cc1cc(=O)[nH]c(SCC(=O)Nc2ccc(Br)cn2)n1`, for which the z-score was -0.346. In the case of `Cc1ccc(-c2ccc(/C=N/N3C(=O)C4C5C=CC(CC5)C4C3=O)o2)c([N+](=O)[O-])c1` (centres undefined), the z-score is -0.413. Next, `CCOc1cc(CNCCc2ccc(S(N)(=O)=O)cc2)ccc1OCc1ccc(Cl)cc1`: 0.202; `CCCc1cc(=O)[nH]c(SCC(=O)Nc2ccccc2C#N)n1`: -0.0832. Next, `CCN(CC)S(=O)(=O)c1ccc(C(=O)Nc2ncn(Cc3ccccc3)n2)cc1`: -0.302; `CC1CCN(c2c(NCc3ccc(C(=O)NCC4COc5ccccc5O4)cc3)c(=O)c2=O)CC1` (centres undefined): -0.0649; `C=CCn1c(SCC(=O)/C(C#N)=C(\C)N)nc2sc(C)c(C)c2c1=O`: -0.2. As for `O=C1CN=C(Nc2cccc(C(F)(F)F)c2)N1C1CCCC1`, the z-score is -2.95. For `O=C(COC(=O)CCC(NC(=O)OCc1ccccc1)C(=O)OCC(=O)Nc1ccccc1)Nc1ccccc1` (centres undefined), the z-score was -0.684. With `CC1(CC(=O)N/N=C/c2ccc(-c3ccc(C(=O)O)cc3)o2)OCCO1`, the z-score was -0.194.

For the compound `CCc1nnc(NC(=O)c2cccc(C(=O)Nc3nnc(CC)s3)n2)s1`, the z-score was -0.297. Next, `CCN1CCC(=NNC(=O)c2ccco2)CC1`: 0.0387; `COc1ccc(C(=O)Nc2nnc(Cc3cccs3)s2)cc1OC`: 0.355.

`O=C(CSc1nc(-c2ccccc2F)nc2nc[nH]c12)Nc1c(Cl)cc(Cl)cc1Cl`: the z-score is -0.306. The compound `O=C(Cn1cnc2c(nnn2Cc2ccc(Cl)cc2)c1=O)OCc1ccccc1` had a z-score of 0.192. `O=C(Nc1nncs1)C1COc2ccccc2O1` (centres undefined) displayed a z-score of 0.542. The compound `O=C1CN=C(Nc2ccccc2Cl)N1Cc1ccc2c(c1)OCO2` gave a z-score of 0.308. Next, `O=C(COC(=O)/C=C/c1cccc(Br)c1)NCCC1=CCCCC1`: -0.168; `CCOCCn1c(SCC)nc2c1c(=O)[nH]c(=O)n2C`: 0.044.

For `CCOC(=O)c1[nH]c2ccccc2c1NC(=O)c1cc(OC)c(OC)c(OC)c1`, the z-score was -0.703.

The compound `CCc1nc(N=Nc2c(O)[nH]c3ccccc23)c2c3c(sc2n1)CCC3` came in with a z-score of 0.157.

`Cc1cc(C)nc(SC(C)C(=O)N/N=C/c2cccs2)n1` (centres undefined) had a z-score of -0.168.

The compound `O=C(CN1C(=O)COCC1=O)N1CCOCC1` came in with a z-score of -0.249.

For `CCOC(=O)c1c(C2COc3ccccc3O2)csc1N` (centres undefined), the z-score came out at 0.773.

Regarding `O=c1cc(CN2CCN(c3cccc(Cl)c3)CC2)c2cc3c(cc2o1)CCCC3`, the z-score was determined as 0.0723. In turn, `O=C(CN1C(=O)NC2(CCCCC2)C1=O)NC1CCCc2ccccc21` (centres undefined) gave a z-score of 0.151. With `O=C(COC(=O)CSc1cc(Cl)ccc1Cl)Nc1ncc(C(F)(F)F)cc1Cl` the figure was -0.401; with `O=C(O)CCC(=O)Nc1ccc(Cc2ccc(NC(=O)CCC(=O)O)cc2)cc1`, -0.0822.

Take `CCCOc1ccc(/C(O)=C2/C(=O)C(=O)N(CCN(C)C)C2c2ccco2)cc1` (centres undefined): the z-score is 0.155.

In turn, `CCCCNC(=O)c1ccccc1C(=O)NCCCC` had a z-score of 0.0704.

For `Cn1c(CO)cnc1SCc1c(Cl)cccc1Cl`, the z-score is -0.162. With `Cc1ccc(C(=O)N/C(=C/c2cccc([N+](=O)[O-])c2)C(=O)NC(C)C)cc1` the figure was -0.0623. In the case of `O=C(NC1CCCCC1)N(CCN1CCOCC1)Cc1cc2cc3c(cc2[nH]c1=O)OCCO3`, the z-score was 0.234. Next, `CC(=O)N1CCN(S(=O)(=O)c2ccccc2)C1c1ccccc1` (centres undefined): -0.0911. Consider `COc1ccc(CCNC(=O)C2CCCN(S(=O)(=O)c3cnc[nH]3)C2)cc1OC` (centres undefined), for which the z-score was -0.0112.

On to `Cc1cccc(C)c1N(CC(O)Cn1c2ccccc2c2ccccc21)S(C)(=O)=O` (centres undefined), for which the z-score is 0.299. The compound `Cc1nc2ccccc2n1C(=O)c1ccccc1[N+](=O)[O-]` showed a z-score of -0.0492. `CO/N=C(/CS(=O)Cc1ccc(Cl)cc1)c1ccc(Cl)cc1` (centres undefined): the z-score was -0.107. On to `Cn1c(=O)[nH]c(=O)c2c1nc(N1CCCCCC1)n2CCCSc1nc2ccccc2o1`, for which the z-score amounted to 0.604. With `CCOC(=O)/C=C1\SCC(=O)N1CC(=O)NC(C)c1ccccc1` (centres undefined) the figure was -0.283; with `Cc1c(=O)n(OCc2ccccn2)c2ccccc2[n+]1[O-]`, 0.399. Next, `CCOC(=O)Nc1ccc2c(c1)nc(CN1CCN(C(C)=O)CC1)n2C`: 0.359. With `O=C1CC(c2cccc(Cl)c2)Cc2nc(N3CCN(c4ccccc4)CC3)ncc21` (centres undefined) the figure was 0.343; with `O=C(Nc1nnc(SCC(=O)N2CCCCC2)s1)C1CCCCC1`, 0.434; with `Cc1ccccc1NC(=O)CC1S/C(=N/c2nccs2)N(C)C1=O` (centres undefined), 0.142. `COc1ccccc1NC(=O)Cn1cnc2c1c(=O)n(C)c(=O)n2C` gave a z-score of -0.525. With `CCN1CCCC1CNC(=O)c1c(O)c2c([nH]c1=O)CCCC2` (centres undefined) the figure was -0.0826. Next, `O=C(COC(=O)c1ccccc1OCC(=O)Nc1ccc(Br)cc1)Nc1ccccc1`: 0.19; `O=C(CC1=NC2(CCCC2)Cc2ccccc21)N1CCOCC1`: -0.129; `CC(C)(C)CC(=O)N1CCC(c2nc3c(nnn3Cc3c(F)cccc3Cl)c(=O)[nH]2)CC1`: -0.92.

As to `COc1nc(NCc2ccco2)nc(NC2CCCCC2)n1`, the z-score was -0.224. In turn, `N#Cc1c(NC(=O)CN2CCN(S(=O)(=O)c3ccc4c(c3)OCCO4)CC2)sc2c1CCC2` displayed a z-score of -0.773. Next, `O=C(NCc1cccnc1)c1cccn2c(=O)c3sccc3nc12`: -0.0801.

In turn, `Cc1ccc(OCc2nnc(SCC(=O)O)n2N)cc1` registered a z-score of -0.00866.

In the case of `CCCc1nc2ccccc2c(=O)n1NC(=O)c1c(O)c2cccc3c2n(c1=O)CCC3`, the z-score amounted to 0.201. Compound `CC1(C)CC(=O)C(CC(=O)Nc2ccc(S(N)(=O)=O)cc2)=C(O)C1` returned a z-score of 0.127. The compound `CN1CCC2(CC1)N=C(c1ccc(F)cc1)C(=S)N2C(=O)c1ccc(C(C)(C)C)cc1` yielded a z-score of -0.387. Next, `CN1CCC(OC(=O)C23CCC(C)(C(=O)O2)C3(C)C)CC1` (centres undefined): 0.0368.

`CNC(=O)/C(C#N)=C/c1c(N(Cc2ccccc2)Cc2ccccc2)nc2ccccn2c1=O`: the z-score was -0.323. Take `COc1ccccc1NS(=O)(=O)c1cccc(C(=O)OCc2nc3ccccc3s2)c1`: the z-score is -0.205. Next, `CC(=O)c1ccc(NC(=S)NNC(=O)c2ccncc2)cc1`: -0.0973; `COc1ccc(/C=N/NC(=O)c2nc(-c3ccccc3)n(-c3ccccc3)n2)cc1OC`: -0.197; `CC(=O)c1cnc2cc(C)nn2c1C`: 0.362. With `NS(=O)(=O)c1ccc(N2N=C(c3ccccc3)CC2c2ccccc2)cc1` (centres undefined) the figure was -0.262; with `O=C(CSc1nnc(-c2ccccc2)o1)NC1CCCCC1`, 0.0366; with `O=C(NC1CCCCC1)C1Cc2ccccc2CN1S(=O)(=O)c1ccc(F)cc1` (centres undefined), -0.922. As for `CCOC(=O)COc1ccc(/C=C/[N+](=O)[O-])c(OCC(=O)OCC)c1`, the z-score was -0.38. As for `CCC(C)(C)C1CCc2nc3ccccc3c(C(=O)OC(C)C(=O)Nc3c(C)n(C)n(-c4ccccc4)c3=O)c2C1` (centres undefined), the z-score is -0.36. Next, `COC(=O)Nc1cc([N+](=O)[O-])ccc1OC`: -0.411; `Cc1ccc(-c2csc3nnc(SCC(=O)Nc4nsc(-c5ccccc5)n4)n23)cc1`: -0.355. For the compound `O=C1/C(=C\c2cccs2)Sc2ccc3ccccc3c21`, the z-score is -0.447. Next, `COC(=O)c1ccc(NC(=O)C2CCN(C(=O)c3cc(OC)c(OC)c(OC)c3)CC2)cc1`: 0.0856.

`CCCn1c(=S)[nH]c2cc(C(=O)N3CCN(c4ccccc4OC)CC3)ccc2c1=O` yielded a z-score of 0.596.

In turn, `COc1ccc(/C=N/Nc2nc(-c3cccc(S(=O)(=O)N4CCCC4)c3)cs2)c(OC)c1` registered a z-score of -0.38.

Turning to `COc1ccc(/C=C/C(=O)c2ccoc2)cc1`, the z-score was -0.4. With `Cc1cc(NC(=O)CCN2C(=O)C3C4CCC(C4)C3C2=O)c(C)cc1Br` (centres undefined) the figure was 1.14; with `Cc1cccc(/C=C/c2nc3ccccc3c(=O)n2Cc2ccccc2)c1`, -0.0988; with `Cc1ccccc1-n1c(SCC(=O)c2cc(C)n(C)c2C)nnc1-c1cccnc1`, -1.19. Next, `COCCn1c(SCC(=O)Nc2ccc(S(N)(=O)=O)cc2)nc2ccccc21`: -0.086; `CC(=O)c1ccc2c(ccc3ccccc32)c1`: -0.153; `COc1ccc(C(=O)N2CCC(C(=O)c3ccc(F)cc3)CC2)cc1`: -1.67.
